# From the supplement of paper PMC10037445
# Over roughly 2,900 compounds, “IRF Lucia reporter activity, fold change vs agonist alone” has its median near 0.9; the highest 2% begin near 2.8. This is one part of the list.
# Key:
# RAW-Dual [1] = assay: IRF Lucia reporter activity, fold change vs agonist alone; higher = enhanced IRF activity; conditions: library stock concentration (final ~1000-fold dilution): 10 mM, agonist: MPLA (TLR4) […]
# Method in brief: (§1)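 Reporter activity is given as fold change relative to agonist-alone wells. To measure it, 50 nL of library stock was pin-tooled onto RAW-Dual macrophages (50,000 cells/well, DMEM, 384-well plates), a PRR agonist followed 1 h later, and cells stayed at 37 °C, 5% CO2. Twenty hours on, supernatant was assayed for IRF (QuantiLuc luminescence) and NF-κB (QuantiBlue, 620 nm absorbance), and wells under 70% of agonist-control IncuCyte confluency in both mask sets were marked cytotoxic.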
# RAW-Dual [2] = assay: IRF Lucia reporter activity, fold change vs agonist alone; cytotoxicity flag (confluency mask): not cytotoxic; higher = enhanced IRF activity
# Method in brief: as §1
# RAW-Dual [3] = assay: IRF Lucia reporter activity, fold change vs agonist alone; cytotoxicity flag (confluency mask): cytotoxic (confluency <70% of control); higher = enhanced IRF activity
# Method in brief: as §1
# [4] = cytotoxicity flag (confluency mask): not cytotoxic
# [5] = agonist: 3'3'-cGAMP (STING) 10 ug/mL
# [6] = cytotoxicity flag (confluency mask): cytotoxic (confluency <70% of control)
compound,measurement,setting,value
Oc1ccc(OC2CCCCO2)cc1 (stereo not given),IRF Lucia reporter activity,RAW-Dual [1]; [4],1.11
Nc1cccc2c1C(=O)N(C1CCC(=O)NC1=O)C2=O (stereo not given),IRF Lucia reporter activity,RAW-Dual [1]; [4],0.864
Nc1cccc2c1C(=O)N(C1CCC(=O)NC1=O)C2=O (stereo not given) (library stock concentration (final ~1000-fold dilution): 10 mM),IRF Lucia reporter activity,RAW-Dual [2]; [5],1.17
same,IRF Lucia reporter activity,RAW-Dual [2]; agonist: LPS (TLR4) 0.1 ug/mL,0.734
NC(=O)c1nc(F)cnc1O (library stock concentration (final ~1000-fold dilution): 10 mM),IRF Lucia reporter activity,RAW-Dual [2]; [5],1.1
same,IRF Lucia reporter activity,RAW-Dual [2]; agonist: LPS (TLR4) 0.1 ug/mL,1.21
Cc1[nH]c2ccccc2c1C1=C(NCCc2ccc(F)cc2)C(=O)N(C)C1=O,IRF Lucia reporter activity,RAW-Dual [1]; [4],1.77
Cc1[nH]c2ccccc2c1C1=C(NCCc2ccc(F)cc2)C(=O)N(C)C1=O (library stock concentration (final ~1000-fold dilution): 10 mM),IRF Lucia reporter activity,RAW-Dual [2]; [5],1.07
same,IRF Lucia reporter activity,RAW-Dual [2]; agonist: LPS (TLR4) 0.1 ug/mL,1.24
Nc1ccc(/C=C/C(=O)NCc2cc3cc(-c4ccc(C(=O)N5CCC(F)(F)CC5)cc4)cc(-c4ccc(F)cc4)c3o2)cn1 (library stock concentration (final ~1000-fold dilution): 10 mM),IRF Lucia reporter activity,RAW-Dual [2]; [5],0.239
same,IRF Lucia reporter activity,RAW-Dual [2]; agonist: LPS (TLR4) 0.1 ug/mL,1.13
O=C(NO)c1cccc(C(=O)NCCc2ccccc2)c1 (library stock concentration (final ~1000-fold dilution): 10 mM),IRF Lucia reporter activity,RAW-Dual [2]; [5],0.268
same,IRF Lucia reporter activity,RAW-Dual [2]; agonist: LPS (TLR4) 0.1 ug/mL,1.09
CC(=O)Nc1nc2c(Oc3cc(-c4ccc(C(F)(F)F)cc4)ncn3)cccc2s1 (library stock concentration (final ~1000-fold dilution): 10 mM),IRF Lucia reporter activity,RAW-Dual [2]; [5],1.16
same,IRF Lucia reporter activity,RAW-Dual [2]; agonist: LPS (TLR4) 0.1 ug/mL,1.22
CC(=O)Nc1nc2c(Oc3cc(-c4ccc(C(F)(F)F)cc4)ncn3)cccc2s1,IRF Lucia reporter activity,RAW-Dual [1]; [4],1.1
CC(C)n1nc(-c2ccc3oc(N)nc3c2)c2c(N)ncnc21,IRF Lucia reporter activity,RAW-Dual [1]; [4],1.47
CC(C)n1nc(-c2ccc3oc(N)nc3c2)c2c(N)ncnc21 (library stock concentration (final ~1000-fold dilution): 10 mM),IRF Lucia reporter activity,RAW-Dual [2]; [5],0.408
same,IRF Lucia reporter activity,RAW-Dual [2]; agonist: LPS (TLR4) 0.1 ug/mL,1.35
N#CSc1cc(SC#N)c(N)nc1N (library stock concentration (final ~1000-fold dilution): 10 mM),IRF Lucia reporter activity,RAW-Dual [3]; [5],0.022
same,IRF Lucia reporter activity,RAW-Dual [3]; agonist: LPS (TLR4) 0.1 ug/mL,0.0681
N#CSc1cc(SC#N)c(N)nc1N,IRF Lucia reporter activity,RAW-Dual [1]; [6],0.0209
O=c1c(OC2OC(CO)C(O)C(O)C2O)c(-c2ccc(O)c(O)c2)oc2cc(O)cc(O)c12 (stereo not given),IRF Lucia reporter activity,RAW-Dual [1]; [4],1.02
O=c1c(OC2OC(CO)C(O)C(O)C2O)c(-c2ccc(O)c(O)c2)oc2cc(O)cc(O)c12 (stereo not given) (library stock concentration (final ~1000-fold dilution): 10 mM),IRF Lucia reporter activity,RAW-Dual [2]; [5],1.06
same,IRF Lucia reporter activity,RAW-Dual [2]; agonist: LPS (TLR4) 0.1 ug/mL,0.986
Clc1ccc(Cn2c(CN3CCCC3)nc3ccccc32)cc1,IRF Lucia reporter activity,RAW-Dual [1]; [4],1.05
Clc1ccc(Cn2c(CN3CCCC3)nc3ccccc32)cc1 (library stock concentration (final ~1000-fold dilution): 10 mM),IRF Lucia reporter activity,RAW-Dual [2]; [5],1.02
same,IRF Lucia reporter activity,RAW-Dual [2]; agonist: LPS (TLR4) 0.1 ug/mL,0.801
Oc1ccc2ccccc2c1SSc1c(O)ccc2ccccc12 (library stock concentration (final ~1000-fold dilution): 10 mM),IRF Lucia reporter activity,RAW-Dual [2]; [5],0.995
same,IRF Lucia reporter activity,RAW-Dual [2]; agonist: LPS (TLR4) 0.1 ug/mL,1.07
Oc1ccc2ccccc2c1SSc1c(O)ccc2ccccc12,IRF Lucia reporter activity,RAW-Dual [1]; [4],1.02
COc1cc2nc(N(C)CCCNC(=O)C3CCCO3)nc(N)c2cc1OC (stereo not given) (library stock concentration (final ~1000-fold dilution): 10 mM),IRF Lucia reporter activity,RAW-Dual [2]; [5],0.589
same,IRF Lucia reporter activity,RAW-Dual [2]; agonist: LPS (TLR4) 0.1 ug/mL,0.979
COc1cc2nc(N(C)CCCNC(=O)C3CCCO3)nc(N)c2cc1OC (stereo not given),IRF Lucia reporter activity,RAW-Dual [1]; [4],1.09
CCOC(=O)COc1ccc(/C=C2\SC(=S)NC2=O)cc1OC (library stock concentration (final ~1000-fold dilution): 10 mM),IRF Lucia reporter activity,RAW-Dual [2]; [5],0.652
same,IRF Lucia reporter activity,RAW-Dual [2]; agonist: LPS (TLR4) 0.1 ug/mL,0.528
CC(CCc1ccccc1)NCC(O)c1ccc(O)c(C(N)=O)c1.Cl (stereo not given) (library stock concentration (final ~1000-fold dilution): 10 mM),IRF Lucia reporter activity,RAW-Dual [2]; [5],1.08
same,IRF Lucia reporter activity,RAW-Dual [2]; agonist: LPS (TLR4) 0.1 ug/mL,0.97
CC(CCc1ccccc1)NCC(O)c1ccc(O)c(C(N)=O)c1.Cl (stereo not given),IRF Lucia reporter activity,RAW-Dual [1]; [4],1.02
CCCCc1nc2cc(/C=C/C(=O)NO)ccc2n1CCN(CC)CC,IRF Lucia reporter activity,RAW-Dual [1]; [6],0.241
CCCCc1nc2cc(/C=C/C(=O)NO)ccc2n1CCN(CC)CC (library stock concentration (final ~1000-fold dilution): 10 mM),IRF Lucia reporter activity,RAW-Dual [3]; [5],0.0582
same,IRF Lucia reporter activity,RAW-Dual [3]; agonist: LPS (TLR4) 0.1 ug/mL,0.291
CC(C)c1cc(-c2n[nH]c(=O)n2-c2ccc3c(ccn3C)c2)c(O)cc1O,IRF Lucia reporter activity,RAW-Dual [1]; [6],1.07
CC(C)c1cc(-c2n[nH]c(=O)n2-c2ccc3c(ccn3C)c2)c(O)cc1O (library stock concentration (final ~1000-fold dilution): 10 mM),IRF Lucia reporter activity,RAW-Dual [3]; [5],0.435
same,IRF Lucia reporter activity,RAW-Dual [3]; agonist: LPS (TLR4) 0.1 ug/mL,0.585
